According to paper PMC12820563, “FoxP3 forms a head-to-head dimer in vivo and stabilizes its multimerization on adjacent microsatellites”:
The list shows a part of the results.

Biological target: T1, MBP-FoxP1dN (Mus musculus, UniProt P58462 326-579)
T1 sequence: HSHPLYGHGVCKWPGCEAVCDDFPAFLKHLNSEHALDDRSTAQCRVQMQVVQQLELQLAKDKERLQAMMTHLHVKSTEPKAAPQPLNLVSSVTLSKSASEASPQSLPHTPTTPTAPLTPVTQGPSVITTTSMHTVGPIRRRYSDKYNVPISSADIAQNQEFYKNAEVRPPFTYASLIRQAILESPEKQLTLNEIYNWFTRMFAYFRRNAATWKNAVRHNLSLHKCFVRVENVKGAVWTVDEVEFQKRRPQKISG
Assay: PD-seq (MBP pull-down with sequencing); 20 mM Tris-HCl pH 7.5, 100 mM NaCl, 1.5 mM MgCl2, 0.4 uM protein, 0.1 uM dsDNA library, 30 min, room temperature, amylose pull-down; high values mean tight binding
Settings: protein: recombinant; tags: His6-MBP; chain copies: 2; dsDNA, one strand shown
Procedure, shortened: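 E. coli-expressed mouse FoxP3 or FoxP1 fragment, N-terminus removed and tagged with His6-MBP, was used at 0.4 µM against 0.1 µM of a Klenow-filled degenerate double-stranded DNA library. After 30 min at room temperature in Tris pH 7.5 buffer with NaCl and MgCl2, complexes were pulled down on amylose resin and washed three times. Binding is pull-down over input reads-per-million enrichment from pooled replicates of the proteinase K-released, PCR-barcoded, Illumina-sequenced DNA.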

Going from “GATGATTGTTCTCCCAGCTGATGAATTTGATGACTCGAGTAAACAAATTTTCCTAATCTTTCTGTTCAAGCGCCATCTAC” to “GATGATTGTTCTCCCAGCTGATGAATTCGGGAGCTCGAGTAAACAAATTTTCCTAATCTTTCTGTTCAAGCGCCATCTAC”, the binding signal falls from 0.974 RPM ratio (pull-down/input) to 0.758 RPM ratio (pull-down/input).

First: GATGATTGTTCTCCCAGCTGATGAATTGCCCACCTCGAGTAAACAAATTTTCCTAATCTTTCTGTTCAAGCGCCATCTAC
Second: GATGATTGTTCTCCCAGCTGATGAATTCCGTGACTCGAGTAAACAAATTTTCCTAATCTTTCTGTTCAAGCGCCATCTAC
The binding signal of the first is higher: 0.84 RPM ratio (pull-down/input) for the first, 0.825 RPM ratio (pull-down/input) for the second.

Going from “GATGATTGTTCTCCCAGCTGATGAATTTAGTACCTCGAGTAAACAAATTTTCCTAATCTTTCTGTTCAAGCGCCATCTAC” to “GATGATTGTTCTCCCAGCTGATGAATTTGTCACATCGAGTAAACAAATTTTCCTAATCTTTCTGTTCAAGCGCCATCTAC”, the binding signal rises from 0.95 RPM ratio (pull-down/input) to 1.24 RPM ratio (pull-down/input).

Compared with “GATGATTGTTCTCCCAGCTGATGAATTTGACGAGTCGAGTAAACAAATTTTCCTAATCTTTCTGTTCAAGCGCCATCTAC”, “GATGATTGTTCTCCCAGCTGATGAATTGTGATAATCGAGTAAACAAATTTTCCTAATCTTTCTGTTCAAGCGCCATCTAC” is higher in binding signal: 0.798 RPM ratio (pull-down/input) for the first, 1.56 RPM ratio (pull-down/input) for the second.

Compared with “GATGATTGTTCTCCCAGCTGATGAATTCCATATATCGAGTAAACAAATTTTCCTAATCTTTCTGTTCAAGCGCCATCTAC”, “GATGATTGTTCTCCCAGCTGATGAATTTAGATTGTCGAGTAAACAAATTTTCCTAATCTTTCTGTTCAAGCGCCATCTAC” is higher in binding signal: 0.994 RPM ratio (pull-down/input) for the first, 1.23 RPM ratio (pull-down/input) for the second.

First: GATGATTGTTCTCCCAGCTGATGAATTGCACCATTCGAGTAAACAAATTTTCCTAATCTTTCTGTTCAAGCGCCATCTAC
Second: GATGATTGTTCTCCCAGCTGATGAATTCTAATCCTCGAGTAAACAAATTTTCCTAATCTTTCTGTTCAAGCGCCATCTAC
The binding signal of the first is higher: 1.14 RPM ratio (pull-down/input) for the first, 0.781 RPM ratio (pull-down/input) for the second.

First: GATGATTGTTCTCCCAGCTGATGAATTAATAGCCTCGAGTAAACAAATTTTCCTAATCTTTCTGTTCAAGCGCCATCTAC
Second: GATGATTGTTCTCCCAGCTGATGAATTGGAATGCTCGAGTAAACAAATTTTCCTAATCTTTCTGTTCAAGCGCCATCTAC
The binding signal of the first is lower: 0.979 RPM ratio (pull-down/input) for the first, 1.06 RPM ratio (pull-down/input) for the second.

First: GATGATTGTTCTCCCAGCTGATGAATTAAATACATCGAGTAAACAAATTTTCCTAATCTTTCTGTTCAAGCGCCATCTAC
Second: GATGATTGTTCTCCCAGCTGATGAATTAAGGGTATCGAGTAAACAAATTTTCCTAATCTTTCTGTTCAAGCGCCATCTAC
The binding signal of the first is higher: 1.44 RPM ratio (pull-down/input) for the first, 0.873 RPM ratio (pull-down/input) for the second.

Compared with “GATGATTGTTCTCCCAGCTGATGAATTCTTCGAATCGAGTAAACAAATTTTCCTAATCTTTCTGTTCAAGCGCCATCTAC”, “GATGATTGTTCTCCCAGCTGATGAATTGTGTCAGTCGAGTAAACAAATTTTCCTAATCTTTCTGTTCAAGCGCCATCTAC” is higher in binding signal: 0.952 RPM ratio (pull-down/input) for the first, 1.04 RPM ratio (pull-down/input) for the second.

Compared with “GATGATTGTTCTCCCAGCTGATGAATTTCAGTGTTCGAGTAAACAAATTTTCCTAATCTTTCTGTTCAAGCGCCATCTAC”, “GATGATTGTTCTCCCAGCTGATGAATTCGATCACTCGAGTAAACAAATTTTCCTAATCTTTCTGTTCAAGCGCCATCTAC” is lower in binding signal: 0.983 RPM ratio (pull-down/input) for the first, 0.872 RPM ratio (pull-down/input) for the second.

First: GATGATTGTTCTCCCAGCTGATGAATTGCTCTGATCGAGTAAACAAATTTTCCTAATCTTTCTGTTCAAGCGCCATCTAC
Second: GATGATTGTTCTCCCAGCTGATGAATTAGACCGCTCGAGTAAACAAATTTTCCTAATCTTTCTGTTCAAGCGCCATCTAC
The binding signal of the first is higher: 0.987 RPM ratio (pull-down/input) for the first, 0.868 RPM ratio (pull-down/input) for the second.

Compared with “GATGATTGTTCTCCCAGCTGATGAATTACACTTCTCGAGTAAACAAATTTTCCTAATCTTTCTGTTCAAGCGCCATCTAC”, “GATGATTGTTCTCCCAGCTGATGAATTACGTCATTCGAGTAAACAAATTTTCCTAATCTTTCTGTTCAAGCGCCATCTAC” is lower in binding signal: 1.22 RPM ratio (pull-down/input) for the first, 1.11 RPM ratio (pull-down/input) for the second.

Going from “GATGATTGTTCTCCCAGCTGATGAATTGTCTAACTCGAGTAAACAAATTTTCCTAATCTTTCTGTTCAAGCGCCATCTAC” to “GATGATTGTTCTCCCAGCTGATGAATTACAAATTTCGAGTAAACAAATTTTCCTAATCTTTCTGTTCAAGCGCCATCTAC”, the binding signal rises from 1.12 RPM ratio (pull-down/input) to 1.32 RPM ratio (pull-down/input).

Going from “GATGATTGTTCTCCCAGCTGATGAATTTGGGGACTCGAGTAAACAAATTTTCCTAATCTTTCTGTTCAAGCGCCATCTAC” to “GATGATTGTTCTCCCAGCTGATGAATTGGACCCTTCGAGTAAACAAATTTTCCTAATCTTTCTGTTCAAGCGCCATCTAC”, the binding signal falls from 0.869 RPM ratio (pull-down/input) to 0.827 RPM ratio (pull-down/input).

First: GATGATTGTTCTCCCAGCTGATGAATTAACCCTATCGAGTAAACAAATTTTCCTAATCTTTCTGTTCAAGCGCCATCTAC
Second: GATGATTGTTCTCCCAGCTGATGAATTATAGCAGTCGAGTAAACAAATTTTCCTAATCTTTCTGTTCAAGCGCCATCTAC
The binding signal of the first is lower: 0.904 RPM ratio (pull-down/input) for the first, 1.02 RPM ratio (pull-down/input) for the second.

Going from “GATGATTGTTCTCCCAGCTGATGAATTCCTTTCTTCGAGTAAACAAATTTTCCTAATCTTTCTGTTCAAGCGCCATCTAC” to “GATGATTGTTCTCCCAGCTGATGAATTCAATAGTTCGAGTAAACAAATTTTCCTAATCTTTCTGTTCAAGCGCCATCTAC”, the binding signal rises from 0.809 RPM ratio (pull-down/input) to 0.822 RPM ratio (pull-down/input).

Compared with “GATGATTGTTCTCCCAGCTGATGAATTCATTTTGTCGAGTAAACAAATTTTCCTAATCTTTCTGTTCAAGCGCCATCTAC”, “GATGATTGTTCTCCCAGCTGATGAATTAGGTTATTCGAGTAAACAAATTTTCCTAATCTTTCTGTTCAAGCGCCATCTAC” is lower in binding signal: 0.976 RPM ratio (pull-down/input) for the first, 0.941 RPM ratio (pull-down/input) for the second.

Going from “GATGATTGTTCTCCCAGCTGATGAATTACGCACGTCGAGTAAACAAATTTTCCTAATCTTTCTGTTCAAGCGCCATCTAC” to “GATGATTGTTCTCCCAGCTGATGAATTCTTGGTCTCGAGTAAACAAATTTTCCTAATCTTTCTGTTCAAGCGCCATCTAC”, the binding signal falls from 1.02 RPM ratio (pull-down/input) to 0.858 RPM ratio (pull-down/input).

Compared with “GATGATTGTTCTCCCAGCTGATGAATTCATTACTTCGAGTAAACAAATTTTCCTAATCTTTCTGTTCAAGCGCCATCTAC”, “GATGATTGTTCTCCCAGCTGATGAATTATAATGTTCGAGTAAACAAATTTTCCTAATCTTTCTGTTCAAGCGCCATCTAC” is higher in binding signal: 0.947 RPM ratio (pull-down/input) for the first, 1.13 RPM ratio (pull-down/input) for the second.

Compared with “GATGATTGTTCTCCCAGCTGATGAATTCTCTCCATCGAGTAAACAAATTTTCCTAATCTTTCTGTTCAAGCGCCATCTAC”, “GATGATTGTTCTCCCAGCTGATGAATTATCGGGATCGAGTAAACAAATTTTCCTAATCTTTCTGTTCAAGCGCCATCTAC” is higher in binding signal: 0.865 RPM ratio (pull-down/input) for the first, 0.87 RPM ratio (pull-down/input) for the second.
